Experimental data published in the supplement of paper PMC12355420.
Where a name gives a salt, the structure may show the parent alone. The list shows a part of the results. Rule as the data show it: active = 0.5 or less and inactive = the rest. Repeats are few or missing, and single values can be far off.

How the values were obtained:
Settings in all cases: 50 µM; 24 h
[1] = tested on: HeLa VPS33A reporter cells; assay: relative cell viability (CellMask signal) vs DMSO (fraction of DMSO); higher = less cytotoxic;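 also: primary screen of an FDA-approved drug library in HeLa reporter cells in 96-well format, CellMask signal normalized to DMSO-treated wells set as 1, under 0.5 deemed highly cytotoxic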
[2] = tested on: HeLa VPS33A R498W KI + HA-SDC1-FLAG; assay: relative GAG core protein HA-SDC1 amount per cell number vs DMSO (fraction of DMSO); higher = more SDC1 (GAG core protein);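 also: HA-SDC1 level read out by In-Cell Western staining with an anti-HA antibody against the N-terminal tag, screening FDA-approved library drugs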
[3] = tested on: HeLa VPS33A KO + NLuc-VPS33A R498W; assay: relative mutant VPS33A R498W amount (NanoLuc luminescence) vs DMSO (fraction of DMSO); HeLa model of a glycosaminoglycan (GAG) storage disease; KI is knock-in and KO knock-out; SDC1 is syndecan 1; higher = higher mutant VPS33A level;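 also: screen of an FDA-approved drug library, NanoLuc luminescence read after lysing the treated cells, taken as a measure of mutant VPS33A protein stability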

Structure (SMILES) | relative cell viability [1] | relative GAG core protein HA-SDC1 amount per cell number [2] | relative mutant VPS33A R498W amount [3]
c1cc(CN2CCCNCCNCCCNCC2)ccc1CN1CCCNCCNCCCNCC1 [Plerixafor (AMD3100)] | 0.979 | inactive: 1.2 | 0.82
Nc1nc(=O)c2c([nH]1)NCC(CNc1ccc(C(=O)N[C@@H](CCC(=O)O)C(=O)O)cc1)N2C=O (some centres not stated) [Leucovorin Calcium] | 1.24 | inactive: 1.3 | 1.04
NC(=O)C1CCCc2c1[nH]c1ccc(Cl)cc21 (configuration not stated) | 0.885 | inactive: 0.697 | 0.834
O=C(O)c1cc(/N=N/c2ccc(S(=O)(=O)Nc3ccccn3)cc2)ccc1O [Sulfasalazine] | 0.985 | inactive: 1.21 | 1.46
C=C[C@@H]1C[C@]1(NC(=O)[C@@H]1C[C@@H]2CN1C(=O)[C@H](C(C)(C)C)NC(=O)O[C@@H]1C[C@H]1CCCCCc1nc3ccc(OC)cc3nc1O2)C(=O)NS(=O)(=O)C1CC1 | 0.653 | active: 0.428 | 0.604
CC1(C)[C@@H](O[C@H]2O[C@H](C(=O)O)[C@@H](O)[C@H](O)[C@H]2O[C@@H]2O[C@H](C(=O)O)[C@@H](O)[C@H](O)[C@H]2O)CC[C@]2(C)[C@H]3C(=O)C=C4[C@@H]5C[C@@](C)(C(=O)O)CC[C@]5(C)CC[C@@]4(C)[C@]3(C)CC[C@@H]12 [Glycyrrhizic acid] | 1.12 | inactive: 0.924 | 1.3
c1cn2cc(-c3ccc4cn[nH]c4c3)nc(Nc3ccc(N4CCOCC4)cc3)c2n1 | 1.05 | inactive: 0.935 | 0.91
O=c1[nH]cc(F)c(=O)[nH]1 [Fluorouracil (Adrucil)] | 1.19 | inactive: 0.906 | 0.645
O=C(O)[C@H]1O[C@@H](Oc2cc3oc(-c4ccccc4)cc(=O)c3c(O)c2O)[C@H](O)[C@@H](O)[C@@H]1O [Baicalin] | 0.95 | inactive: 0.804 | 1.16
N[C@@H](CO)C(=O)O | 0.904 | inactive: 1.37 | 1.12
N=C(N)NCCC[C@H](N)C(=O)O [L-Arginine (hydrochloride)] | 1.28 | inactive: 0.897 | 1.04
Nc1ccccc1NC(=O)c1ccc(CNc2nccc(-c3cccnc3)n2)cc1 [Mocetinostat (MGCD0103, MG0103)] | 0.521 | inactive: 0.578 | 0.717
CO[C@@]1(NC(=O)C(C(=O)O)c2ccc(O)cc2)C(=O)N2C(C(=O)O)=C(CSc3nnnn3C)CO[C@@H]21 (some centres not stated) [Moxalactam (sodium salt)] | 0.942 | inactive: 0.907 | 1.89
COc1cc(C=O)ccc1O [Vanillin] | 1.07 | inactive: 0.799 | 1.18
C[C@]1(O)C[C@@H](c2nc(-c3ccc4ccc(-c5ccccc5)nc4c3)c3c(N)nccn32)C1 [Linsitinib] | 1.15 | inactive: 0.585 | 0.278
CCc1ccc(CCOc2ccc(CC3SC(=O)NC3=O)cc2)nc1 (configuration not stated) [Pioglitazone] | 0.927 | inactive: 1.06 | 1.26
CCOC(=O)N1c2ccc(C(F)(F)F)cc2[C@@H](N(Cc2cc(C(F)(F)F)cc(C(F)(F)F)c2)C(=O)OC)C[C@H]1CC [Torcetrapib] | 1 | inactive: 1.12 | 1.36
CCc1cc2c(cc1N1CCC(N3CCOCC3)CC1)C(C)(C)c1[nH]c3cc(C#N)ccc3c1C2=O | 1.56 | inactive: 2.05 | 0.809
O=C(O)c1cccc(-c2noc(-c3ccccc3F)n2)c1 [PTC124 (Ataluren)] | 1.19 | inactive: 1.17 | 0.902
CCN(CC)CCOC(=O)c1ccc(N)cc1 [Procaine] | 0.978 | inactive: 0.916 | 1.33
O=C(O)c1cc(/N=N/c2ccc(O)c(C(=O)O)c2)ccc1O [Olsalazine Sodium] | 1.07 | inactive: 1.72 | 0.855
CN(CCOc1ccc(CC2SC(=O)NC2=O)cc1)c1ccccn1 (configuration not stated) [Rosiglitazone HCl] | 1.16 | inactive: 0.848 | 0.732
CN[C@@H]1[C@H](O)[C@H](NC)[C@H]2O[C@@]3(O)C(=O)C[C@@H](C)O[C@H]3O[C@@H]2[C@H]1O [Spectinomycin dihydrochloride] | 1.04 | inactive: 0.955 | 0.98
Cc1cc(C(C)(C)C)cc(C)c1CC1=NCCN1 [Xylometazoline HCl] | 1.06 | inactive: 0.829 | 0.832
